{"source": "PubChem BioAssay AID1508623", "about": "(National Center for Advancing Translational Sciences (NCATS), 2021)", "note": "Out of some 48,000 compounds screened, about 450 (0.94%) were called active. The shares of active, inactive and inconclusive entries below differ from those in the screen. Calls come from the whole dose curve; as a rule, active = well fitted inhibition curve with a large enough effect; inconclusive = small, poorly fitted or top-dose-only effect; inactive = no such curve, though single readings can be large or run the other way. A potency beside an inconclusive call is a rough fit, not a confirmed value. Potency is the fitted concentration of half-maximal effect; tags give direction and shape of the fitted curve.", "data": [{"assay": "Primary qHTS for Identification of Small Molecule Inhibitors of Huntingtin Promoter Activity; note: nearly all actives have a fitted effect of over 50% in size", "details": "HEK293 HTT promoter firefly luciferase reporter (activity 0% = vehicle and -100% = no light), 24 h; activity change, negative = inhibition: at 57.5 µM (top of the series)", "method_in_brief": "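Firefly luciferase readout (Dual-Glo, 10 min RT) after 24 h, 37 °C compound exposure (final up to 57.5 uM) of HEK293 reporter cells cultured 24 h beforehand; PTC124 at 50 uM final as control inhibitor; activity scaled vehicle 0%, zero RLU -100%.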", "values": [{"compound": "CC(C)(CC(=O)OCC(=O)Nc1ccccc1F)CC1=NS(=O)(=O)c2ccccc2N1", "Potency": "inconclusive: 39.8 µM [inhibitor, partial curve, poor fit]"}, {"compound": "O=C(COc1ccc([N+](=O)[O-])cc1)N1CCC(c2nc3ccccc3s2)CC1", "Potency": "inconclusive: 14.1 µM [inhibitor, partial curve, poor fit]"}, {"compound": "CCOc1ccc(N(C(C)C(=O)NCCSc2ccc(Cl)cc2)S(C)(=O)=O)cc1", "note": "(stereo unspecified)", "Potency": "inconclusive: 31.6 µM [inhibitor, partial curve, poor fit]"}, {"compound": "CCOC(=O)C1CCN(c2cc(C)nc3c(-c4ccccc4OC)c(C)nn23)CC1", "Potency": "inconclusive: 39.8 µM [inhibitor, partial curve, poor fit]"}, {"compound": "CCCCNc1nc(Oc2ccc(=O)n(-c3ccccc3)n2)nc(N(CC)CC)n1", "Potency": "inconclusive: 22.4 µM [inhibitor, partial curve, poor fit]"}, {"compound": "Cc1cccc(Cn2c(SCc3ccc(C(=O)NCc4ccccc4)cc3)nc3cccnc32)c1", "Potency": "inconclusive: 31.6 µM [inhibitor, single point]"}, {"compound": "Cc1ccc(N2C(=O)CS(=O)(=O)C23C(=O)N(Cc2ccccc2C)c2ccccc23)cc1Cl", "note": "(stereo unspecified)", "Potency": "inconclusive: 11.2 µM [inhibitor, partial curve]"}, {"compound": "COc1ccc(-n2c(=O)[nH]c3cc(C(=O)NCCc4ccc(Cl)cc4)ccc3c2=O)cc1OC", "Potency": "inconclusive: 11.2 µM [inhibitor, partial curve]"}, {"compound": "COc1ccccc1CCNC(=O)Cn1ccc2cc(S(=O)(=O)N3CCCCC3)ccc21", "Potency": "inconclusive: 17.8 µM [inhibitor, single point]"}, {"compound": "CCOC(=O)N1CCN(Cc2nc3cc(NC(=O)c4ccc(F)cc4)ccc3n2C(C)C)CC1", "Potency": "inconclusive: 10 µM [inhibitor, partial curve, poor fit]"}, {"compound": "COc1ccc(C)cc1NC(=O)C1CCC(CNS(=O)(=O)c2ccc3c(c2)CCCC(=O)N3)CC1", "note": "(stereo unspecified)", "Potency": "inconclusive: 11.2 µM [inhibitor, partial curve]"}, {"compound": "CC(=O)c1c(C)n(S(=O)(=O)c2ccc(Cl)cc2)c2ccc(NS(=O)(=O)c3ccc(Cl)cc3)cc12", "Potency": "inconclusive: 17.8 µM [inhibitor, partial curve, poor fit]"}, {"compound": "Cc1ccc(NC(=O)CN2C(=O)C(c3ccc(C)cc3)=NC23CCCCCC3)cc1", "Potency": "inconclusive: 31.6 µM [inhibitor, partial curve, poor fit]"}, {"compound": "Cc1ccc(C)c(N2CCN(C(=O)CCS(=O)(=O)c3ccc4c(c3)oc(=O)n4C)CC2)c1", "Potency": "inconclusive: 25.1 µM [inhibitor, partial curve, poor fit]"}, {"compound": "COc1ccc2c(c1)c(=O)c(S(=O)(=O)c1ccc(Cl)cc1)cn2Cc1cc(C)ccc1C", "Potency": "inconclusive: 35.5 µM [inhibitor, single point]"}, {"compound": "CCOc1cc2c(cc1OCC)C(CC(=O)OC)N(C(=O)Nc1cc(OC)ccc1OC)CC2", "note": "(stereo unspecified)", "Potency": "inconclusive: 25.1 µM [inhibitor, single point]"}, {"compound": "CCN(CC)C(=O)c1sc2c(c1C)c(=O)n(CCc1ccccc1)c(=O)n2Cc1ccc(C)cc1", "Potency": "inconclusive: 35.5 µM [inhibitor, partial curve, poor fit]"}, {"compound": "CCCCNC(=O)c1cc(-c2cccnc2)nc2ccc(S(=O)(=O)NCCCC)cc12", "activity change, negative = inhibition": "inactive: -16.2%"}, {"compound": "Cc1ccc(CNC(=O)CCSCc2cnn(-c3ccccc3)c2-n2cccc2)cc1", "activity change, negative = inhibition": "inactive: -13.8%"}, {"compound": "COc1ccc(NCc2cccn2-c2nnc(N3CCOCC3)s2)cc1OC", "Potency": "inconclusive: 28.2 µM [inhibitor, partial curve, poor fit]"}, {"compound": "COc1ccc(CNC(=O)Cn2ncc3c(=O)oc4ccccc4c32)c(OC)c1", "activity change, negative = inhibition": "inactive: -4.7%"}, {"compound": "Cc1csc2nc(COC(=O)c3cccc(NC(=O)COc4ccccc4Cl)c3)cc(=O)n12", "Potency": "inconclusive: 22.4 µM [inhibitor, partial curve, poor fit]"}, {"compound": "COC(=O)CCCn1c(-c2ccc(C)cc2)c(C)n2c3c(=O)n(C)c(=O)n(C)c3nc12", "activity change, negative = inhibition": "inactive: 4.87%"}, {"compound": "CCn1ccc2c(OCC(=O)Nc3ccc(C)c(Cl)c3)cccc2c1=O", "Potency": "inconclusive: 17.8 µM [inhibitor, partial curve, poor fit]"}, {"compound": "Cc1cccc(C(=O)Nc2c(C(=O)N3CCN(c4ccc(F)cc4)CC3)oc3ccccc23)c1", "Potency": "inconclusive: 31.6 µM [inhibitor, single point]"}, {"compound": "COc1cc(C(=O)NC(c2ccccc2Cl)c2cc(Cl)c3cccnc3c2O)cc(OC)c1OC", "note": "(stereo unspecified)", "Potency": "inconclusive: 5.01 µM [inhibitor, full curve]"}, {"compound": "COc1ccccc1C(=O)Nc1cccc(C(=O)OCc2cc(=O)n3c4c(sc3n2)CCCC4)c1", "Potency": "inconclusive: 22.4 µM [inhibitor, partial curve, poor fit]"}, {"compound": "Cc1onc(-c2ccccc2Cl)c1C(=O)Oc1ccccc1F", "Potency": "inconclusive: 39.8 µM [inhibitor, single point]"}, {"compound": "CCCCCCCCCCCCc1ccc(S(=O)(=O)Nc2nncs2)cc1", "activity change, negative = inhibition": "inactive: 1.34%"}, {"compound": "CCOc1ccc(NC(=O)C(CC(C)C)N2Cc3ccccc3C2=O)cc1", "note": "(stereo unspecified)", "activity change, negative = inhibition": "inactive: -25.6%"}, {"compound": "Cc1ccc(CN2CCCn3nc(C(=O)NCc4ccc(N(C)C)cc4)cc3C2=O)cc1", "Potency": "inconclusive: 17.8 µM [inhibitor, partial curve, poor fit]"}, {"compound": "O=C(CSc1nc2ccsc2c(=O)n1-c1ccc(Cl)cc1)NCc1ccc(Cl)cc1", "Potency": "inconclusive: 39.8 µM [inhibitor, single point]"}, {"compound": "CC1CCN(c2nc(-c3ccc(C(C)(C)C)cc3)nc3ccccc23)CC1", "activity change, negative = inhibition": "inactive: -39.5%"}, {"compound": "CCC(=O)N1CCc2cc(S(=O)(=O)NCCC(=O)Nc3ccc(CC)cc3)ccc21", "Potency": "inconclusive: 31.6 µM [inhibitor, partial curve, poor fit]"}, {"compound": "CC(C)CNC(=O)Nc1cc(C(=O)NCc2ccc(C(C)C)cc2)ccc1N1CCCC1", "Potency": "inconclusive: 25.1 µM [inhibitor, partial curve]"}, {"compound": "O=C(CC1N=C2c3ccccc3N=C(SCC(=O)Nc3ccc(F)cc3)N2C1=O)NCc1ccco1", "note": "(stereo unspecified)", "Potency": "inconclusive: 39.8 µM [inhibitor, single point]"}]}]}
